# Some of the results follow.
# Tests used:
# Assay in all cases: glycan array binding signal (z-score within array); higher = stronger binding
# Details in all cases: glycan notation: IUPAC condensed, linker removed
# [1] = biological target: Gal(b1-3)GalNAc(b1-3)Gal(a1-4)Gal(b1-4)Glc
# How it was run: (§1)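 Glycan array data came from 3228 arrays in the Consortium for Functional Glycomics database, and only arrays with an available protein sequence were kept. Glycan names were put into IUPAC-condensed notation, and columns mapping to the same glycan were averaged. The binding signal is a within-array Z-score, averaged across arrays of one protein sequence run at different concentrations or buffers and across linkers. A negative Z-score can be read as non-binding.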
# [2] = biological target: Gal(b1-3)GalNAc(b1-4)Gal(b1-4)Glc
# How it was run: as §1
# [3] = biological target: Gal(b1-3)GalNAc(b1-4)[Neu5Ac(a2-3)]Gal(b1-4)Glc
# How it was run: as §1
# [4] = biological target: Gal(b1-3)GlcNAc
# How it was run: as §1
# [5] = biological target: Gal(b1-3)GlcNAc(a1-3)Gal(b1-4)GlcNAc
# How it was run: as §1
# [6] = biological target: Gal(b1-3)GlcNAc(a1-6)Gal(b1-4)GlcNAc
# How it was run: as §1
# [7] = biological target: Gal(b1-3)GlcNAc(b1-2)Man
# How it was run: as §1
# [8] = biological target: Gal(b1-3)GlcNAc(b1-2)Man(a1-3)[Gal(b1-3)GlcNAc(b1-2)Man(a1-6)]Man(b1-4)GlcNAc(b1-4)GlcNAc
# How it was run: as §1
# [9] = biological target: Gal(b1-3)GlcNAc(b1-2)Man(a1-3)[Gal(b1-3)GlcNAc(b1-2)Man(a1-6)]Man(b1-4)GlcNAc(b1-4)[Fuc(a1-6)]GlcNAc
# How it was run: as §1
# [10] = biological target: Gal(b1-3)GlcNAc(b1-2)Man(a1-3)[GlcNAc(b1-4)][Gal(b1-3)GlcNAc(b1-2)Man(a1-6)]Man(b1-4)GlcNAc(b1-4)GlcNAc
# How it was run: as §1
# [11] = biological target: Gal(b1-3)GlcNAc(b1-2)[Gal(b1-3)GlcNAc(b1-6)]Man(a1-6)[Gal(b1-3)GlcNAc(b1-2)Man(a1-3)]Man(b1-4)GlcNAc(b1-4)GlcNAc
# How it was run: as §1
# [12] = biological target: Gal(b1-3)GlcNAc(b1-3)Gal(b1-3)GlcNAc
# How it was run: as §1
# [13] = biological target: Gal(b1-3)GlcNAc(b1-3)Gal(b1-4)Glc
# How it was run: as §1
# [14] = biological target: Gal(b1-3)GlcNAc(b1-3)Gal(b1-4)GlcNAc
# How it was run: as §1
# [15] = biological target: Gal(b1-3)GlcNAc(b1-3)Gal(b1-4)GlcNAc(b1-2)Man(a1-3)[Gal(b1-3)GlcNAc(b1-3)Gal(b1-4)GlcNAc(b1-2)Man(a1-6)]Man(b1-4)GlcNAc(b1-4)GlcNAc
# How it was run: as §1
# [16] = biological target: Gal(b1-3)GlcNAc(b1-3)Gal(b1-4)GlcNAc(b1-2)[Gal(b1-3)GlcNAc(b1-3)Gal(b1-4)GlcNAc(b1-6)]Man(a1-6)[Gal(b1-3)GlcNAc(b1-3)Gal(b1-4)GlcNAc(b1-2)Man(a1-3)]Man(b1-4)GlcNAc(b1-4)[Fuc(a1-6)]GlcNAc
# How it was run: as §1
# [17] = biological target: Gal(b1-3)GlcNAc(b1-3)Gal(b1-4)GlcNAc(b1-3)Gal(b1-4)GlcNAc(b1-2)[Gal(b1-3)GlcNAc(b1-3)Gal(b1-4)GlcNAc(b1-3)Gal(b1-4)GlcNAc(b1-6)]Man(a1-6)[Gal(b1-3)GlcNAc(b1-3)Gal(b1-4)GlcNAc(b1-3)Gal(b1-4)GlcNAc(b1-2)Man(a1-3)]Man(b1-4)GlcNAc(b1-4)[Fuc(a1-6)]GlcNAc
# How it was run: as §1
# [18] = biological target: Gal(b1-3)GlcNAc(b1-3)Gal(b1-4)GlcNAc(b1-6)[Gal(b1-3)GlcNAc(b1-3)]Gal(b1-4)Glc
# How it was run: as §1
# [19] = biological target: Gal(b1-3)GlcNAc(b1-3)Gal(b1-4)[Fuc(a1-3)]GlcNAc
# How it was run: as §1
# [20] = biological target: Gal(b1-3)GlcNAc(b1-3)Gal(b1-4)[Fuc(a1-3)]GlcNAc(b1-6)[Gal(b1-3)GlcNAc(b1-3)]Gal(b1-4)Glc
# How it was run: as §1
# [21] = biological target: Gal(b1-3)GlcNAc(b1-3)GalNAc
# How it was run: as §1
# [22] = biological target: Gal(b1-3)GlcNAc(b1-6)Gal(b1-4)GlcNAc
# How it was run: as §1
# [23] = biological target: Gal(b1-3)GlcNAc(b1-6)GalNAc
# How it was run: as §1
# [24] = biological target: Gal(b1-3)GlcNAc(b1-6)[Gal(b1-3)]GalNAc
# How it was run: as §1
# [25] = biological target: Gal(b1-3)GlcNAc6S
# How it was run: as §1
# [26] = biological target: Gal(b1-3)[Fuc(a1-4)]GlcNAc
# How it was run: as §1
# [27] = biological target: Gal(b1-3)[Fuc(a1-4)]GlcNAc(b1-2)Man
# How it was run: as §1
# [28] = biological target: Gal(b1-3)[Fuc(a1-4)]GlcNAc(b1-2)Man(a1-3)[Gal(b1-3)[Fuc(a1-4)]GlcNAc(b1-2)Man(a1-6)]Man(b1-4)GlcNAc(b1-4)[Fuc(a1-6)]GlcNAc
# How it was run: as §1
# [29] = biological target: Gal(b1-3)[Fuc(a1-4)]GlcNAc(b1-3)Gal(b1-3)[Fuc(a1-4)]GlcNAc
# How it was run: as §1
# [30] = biological target: Gal(b1-3)[Fuc(a1-4)]GlcNAc(b1-3)Gal(b1-4)[Fuc(a1-3)]GlcNAc
# How it was run: as §1
# [31] = biological target: Gal(b1-3)[Fuc(a1-4)]GlcNAc(b1-6)GalNAc
# How it was run: as §1
# [32] = biological target: Gal(b1-3)[GlcNAc(b1-6)]GalNAc
# How it was run: as §1
# [33] = biological target: Gal(b1-3)[Neu5Ac(a2-6)]GalNAc
# How it was run: as §1
# [34] = biological target: Gal(b1-3)[Neu5Ac(a2-6)]GlcNAc(b1-4)Gal(b1-4)Glc
# How it was run: as §1
# [35] = biological target: Gal(b1-3)[Neu5Ac(b2-6)]GalNAc
# How it was run: as §1
# [36] = biological target: Gal(b1-4)Gal
# How it was run: as §1
# [37] = biological target: Gal(b1-4)GalNAc(a1-3)[Fuc(a1-2)]Gal(b1-4)GlcNAc
# How it was run: as §1
# [38] = biological target: Gal(b1-4)GalNAc(b1-3)[Fuc(a1-2)]Gal(b1-4)GlcNAc
# How it was run: as §1
binder,measurement,setting,value
GS13846A-bth-444-19-444 (Bacteroides thetaiotaomicron) (protein) SCENEFDVSDKADSLISVTVNTLNNQAAYNVGETAQAELWIQRGGLKDASGKVQFVVDPLLLDSLNQEDKTNYELLPENCYEMTNTEFTVDKNELCGYITYHPEKILALSAYNETKYVLPLRLISNDLAINPARNTSFLAFTILEPIVHISNAGVYNINPDLTSTMDIQIGVPFTNKWDILCNLTEDLSLIDEYNQINKVNFTLLPENAYTAPESVTLQEGVSQITASYQLKNNLVPGNYILPIKIGSITASQGGVPNNSLVIDEESNVLFCIVKEGNKINKSGWEVIECSSEHAGNEATYMIDDNESTYWHCKFKNEAGSSVPPFHFIIDMKKEITIAQIDLLNRGDGAANNIKWVEFYASNNNSEWDKIGAGDFNDEGTRATFRYYVKSTKARYLKLIIPEGYGNNCPPAAIRELTVYGLEGNN,glycan array binding signal (z-score),[1],-0.249
same,glycan array binding signal (z-score),[2],0.037
same,glycan array binding signal (z-score),[3],-0.217
same,glycan array binding signal (z-score),[4],-0.352
same,glycan array binding signal (z-score),[5],-0.246
same,glycan array binding signal (z-score),[6],-0.421
same,glycan array binding signal (z-score),[7],-0.167
same,glycan array binding signal (z-score),[8],0.242
same,glycan array binding signal (z-score),[9],3.4
same,glycan array binding signal (z-score),[10],-0.009
same,glycan array binding signal (z-score),[11],-0.163
same,glycan array binding signal (z-score),[12],-0.243
same,glycan array binding signal (z-score),[13],-0.265
same,glycan array binding signal (z-score),[14],-0.42
same,glycan array binding signal (z-score),[15],0.024
same,glycan array binding signal (z-score),[16],0.215
same,glycan array binding signal (z-score),[17],1.15
same,glycan array binding signal (z-score),[18],-0.016
same,glycan array binding signal (z-score),[19],0.028
same,glycan array binding signal (z-score),[20],-0.305
same,glycan array binding signal (z-score),[21],0.045
same,glycan array binding signal (z-score),[22],0.481
same,glycan array binding signal (z-score),[23],-0.105
same,glycan array binding signal (z-score),[24],-0.028
same,glycan array binding signal (z-score),[25],-0.3
same,glycan array binding signal (z-score),[26],-0.189
same,glycan array binding signal (z-score),[27],-0.058
same,glycan array binding signal (z-score),[28],0.111
same,glycan array binding signal (z-score),[29],-0.326
same,glycan array binding signal (z-score),[30],-0.475
same,glycan array binding signal (z-score),[31],-0.199
same,glycan array binding signal (z-score),[32],-0.285
same,glycan array binding signal (z-score),[33],-0.253
same,glycan array binding signal (z-score),[34],0.053
same,glycan array binding signal (z-score),[35],-0.333
same,glycan array binding signal (z-score),[36],1.07
same,glycan array binding signal (z-score),[37],-0.207
same,glycan array binding signal (z-score),[38],-0.133
